# Test results from PMC12136788.
# The other results are listed elsewhere or left out.
# T1: UNK ZnF1-3 (human, UniProt Q9C0B0 31-174)
# T1 sequence: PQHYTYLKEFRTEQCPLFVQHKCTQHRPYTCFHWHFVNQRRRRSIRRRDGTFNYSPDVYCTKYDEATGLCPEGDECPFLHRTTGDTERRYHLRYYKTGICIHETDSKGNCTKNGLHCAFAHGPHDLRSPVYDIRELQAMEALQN
# B1: chr16:17261293:17261294:+_ENSMUSG00000050240_ENSMUST00000090190|mus_hu|FALSE|FALSE (ssRNA)
# RNA: GGGAGUUCUACAGUCCGACGAUCCUGAAGUUCUGCAAAGGAAUCACCUACUUUCACGAGUCACCUCACAGAUGCGGCUGCCCACAGCCCGGGAGGCCAUGCACACGGCCAGGCGCGUGAACAUUUCCCGUGCGGUACAGACUUCAACAGAGGAUUGAGCAUCA
# B2: chr1:82457952:82457953:+_ENSG00000117114_ENST00000335786|hu_mus|FALSE|FALSE (ssRNA)
# RNA: GGGAGUUCUACAGUCCGACGAUCAGCUUUGCUGAAACAAUUUACAUGUCAUUAGAACUUUACCAUAAAAUAAAUUAAUUACUAAAUAUAGCCAGAAGGAAUAUGGAAGAGUAAUAUUUCUGUUUUAUUUUAUUUUUAUUUUAUCAACAGAGGAUUGAGCAUCA
# B3: chr19:36967278:36967279:+_ENSMUSG00000024811_ENSMUST00000025729|mus_hu|FALSE|FALSE (ssRNA)
# RNA: GGGAGUUCUACAGUCCGACGAUCGAAUGUGAUACAGUACAAGUAAGACACUGAAGAUGGGUAUAAUAGUACUACUUGCACAAAAAGUUAAAUUUCACUUCAAAAAAAAAAAUCACAAGACAAAAGAAAAAGCAAUUCCAUCAUCAACAGAGGAUUGAGCAUCA
# B4: chr17:64801638:64801639:+_ENSG00000154229_ENST00000413366|hu_mus|hu_hu_hu_mus_False|8_58 (ssRNA)
# RNA: GGGAGUUCUACAGUCCGACGAUCUAUAUAUAUAUAUACAUAUGUACACAUAUAUAGUAAAACCCUAGUUAAACGUGUAAACUAGCCAUUCAUUUUUAAAAUUACAUCUACAUUAAAAAAUUAAUAUAUCUGAUACAGUGCCAGCAACAGAGGAUUGAGCAUCA
# B5: chr16:45737064:45737065:-_ENSMUSG00000033157_ENSMUST00000066983|mus_hu|FALSE|FALSE (ssRNA)
# RNA: GGGAGUUCUACAGUCCGACGAUCAAGCUGAUUAAACUUUGUCACUAAGGUAUCUGCAGCUGUAGCUACACCAAUAAGAGCCACGACCUUCUCUGGUCGUGCAAUUGCAGCAUGAAGCAUAAGCCACCCUCCAAGGCUAGAUCCCAACAGAGGAUUGAGCAUCA
# B6: chr9:106791465:106791466:-_ENSMUSG00000032575_ENSMUST00000069036|mus_mus|FALSE|FALSE (ssRNA)
# RNA: GGGAGUUCUACAGUCCGACGAUCUUUAGGCAUCAGUUCAUUUAUCUUCCGGAUAUAGUCAGACUUUUCUGCACAGCCUUUGCACAUCUCCCCCCAGUCGUCCAGGAUCUUCUUCAGCUCUUUCACCCGGAGCUUCUUCAGGUCCAACAGAGGAUUGAGCAUCA
# B7: chr17:4849111:4849112:-_ENSG00000108518_ENST00000225655|hu_hu|FALSE|FALSE (ssRNA)
# RNA: GGGAGUUCUACAGUCCGACGAUCCUGGCCCCCAGCCCAUGUGGUUUUGGCAGCAAUAAGGGGUAUGGGGUAAUGGCCCAAAAAAUAAAAUGGUUUGUGUGUGUAUGGGGAGGAAAGGGGUGCAAAGCUGUGGGGAGCGGUGAACAACAGAGGAUUGAGCAUCA
# B8: chr18:48422213:48422214:+_ENSG00000082212_ENST00000321341|hu_hu|motif|central (ssRNA)
# RNA: GGGAGUUCUACAGUCCGACGAUCGCUUGCCUUUUUCUUUUAUGUGCAAAUGUCGACAUGCCAAAGUACAAGUGGUGGAAACGGCUCUUAACCGGGACAACAUCUUUUCUUUCACCAGAGGUCUCGCGCCGCGACAGGUGGUACCAACAGAGGAUUGAGCAUCA
# B9: chr12:105536279:105536280:+_ENSG00000136051_ENST00000332180|hu_mus|motif|central (ssRNA)
# RNA: GGGAGUUCUACAGUCCGACGAUCAGCACUGAACAUGUAAUGUAAUCUGGCUGCAUCGACAGCAUUUUCAUAUACAUCAUCGGAAUAAAUCGGGAAGACAGCGCGAUGCCAGUAUAAAAAACAGCAGUCACACUGUGCUUGGACCAACAGAGGAUUGAGCAUCA
# B10: chr17:21094002:21094003:+_ENSMUSG00000007564_ENSMUST00000007708|mus_hu|FALSE|FALSE (ssRNA)
# RNA: GGGAGUUCUACAGUCCGACGAUCCAUGUAGCGGACGCGCCAGGACUUGUCUUCAGCGGCCUGGCGCAGAGUGGGCAUCACCAGGGCCUCCAGAUCCUCCUGGGGCAGAAGCUGGGCGAUGUUCACGCACGCCUCCACCGCCAGCAACAGAGGAUUGAGCAUCA
# B11: chr5:144009550:144009551:+_ENSMUSG00000029587_ENSMUST00000032591|mus_hu|motif|central (ssRNA)
# RNA: GGGAGUUCUACAGUCCGACGAUCGUCAAAAUUUACAGAAAAUAAAUCUCUAUAUCAACAGCUUAAAAUAAAUGACUUACCGGAAGUCCACUUCUGAACUGCAUAACUCCUAUAAAGGUUUCAGUCUGUACCAAUUAGAAUGUCCAACAGAGGAUUGAGCAUCA
# B12: chr17:48772226:48772227:-_ENSG00000154945_ENST00000285243|hu_hu|motif|central (ssRNA)
# RNA: GGGAGUUCUACAGUCCGACGAUCUAAGAUCAAACAAUUUGUUUACAAAAGCAACAGAUUUCAGAAUUGUGUAAAAAUCCGGAUAAUUUCAAAAUAACCUUUAUUUUUGAUACAAAAAUAAAGAUGCUAACUCCUUUAGCUCAGCAACAGAGGAUUGAGCAUCA
# B13: chr4:96106342:96106343:-_ENSG00000182168_ENST00000453304|hu_hu|FALSE|FALSE (ssRNA)
# RNA: GGGAGUUCUACAGUCCGACGAUCAAGAGCCUUAGGUUCUUCUAGGAGCUGUCCUCCCAUCUGUCUCUCAAGAUGUAAAAUUUCCUUCAGGGCAUCCUGGGUGUCAUCCAGACAGUAGACUCGGAUGCUGUACUCCAGCGAGGACAACAGAGGAUUGAGCAUCA
# B14: chr3:8560387:8560388:+_ENSMUSG00000027500_ENSMUST00000029002|perfect_dup|motif|central (ssRNA)
# RNA: GGGAGUUCUACAGUCCGACGAUCCAUACACUUCCCAUACUGAUAUCGCAUGAUCCAUUAUAAUAUAGGCAGGGGGAUUUACGGUGGGAGGGGCUUGCCAUACCCGCCAUUGCUUCAGCCAGACAGUUCAACCUGCAGUUCCUUCAACAGAGGAUUGAGCAUCA
# Target: T1, UNK ZnF1-3
# Assay: nsRBNS (natural sequence RNA bind-n-seq); RBNS binding buffer (assumed for nsRBNS): 25 mM Tris pH 7.5, 150 mM KCl, 3 mM MgCl2, 0.01% Triton X-100, 500 ug/ml BSA, 20 U/ml SUPERase-In, 4 C; UNK is unkempt and MSI1 is Musashi-1; names of the RNAs are library labels; protein concentration not given here; high values mean tight binding
row,Binder,binding signal
1,B1,0.74 enrichment R
2,B2,2.43 enrichment R
3,B3,1.54 enrichment R
4,B4,1.24 enrichment R
5,B5,1 enrichment R
6,B6,0.552 enrichment R
7,B7,3.12 enrichment R
8,B8,0.83 enrichment R
9,B9,1.38 enrichment R
10,B10,0.451 enrichment R
11,B11,0.8 enrichment R
12,B12,1.24 enrichment R
13,B13,0.522 enrichment R
14,B14,1.28 enrichment R
